Results reported in patent US20220289791A1 (UNIVERSIT CATHOLIQUE DE LOUVAIN, published 2022).

Key:
[1] = target: T1, truncated LDHB (LDHBtr), LDHB subunit lacking the first N-terminal 19 amino acid residues, 6His tagged (human, UniProt P07195 21-334); assay: MST, labelled LDHBtr 100 nM, MST on time 10 to 20 s, n=3
T1 construct: Expressed in E. coli from pET-28a with a 6His tag; Labelled with Red-dye-NHS for MST; also called hLDHBtr; rLDHBtr

[2] = target: T1, truncated LDHB (LDHBtr), LDHB subunit …; assay: MST, Red-dye-NHS labelled LDHBtr 100 nM
[3] = target: T1, truncated LDHB (LDHBtr), LDHB subunit …; assay: MST, 10 to 20 s on time, Red-dye-NHS labelled LDHBtr 100 nM
[4] = target: T1, truncated LDHB (LDHBtr), LDHB subunit …; assay: MST, Red-dye-NHS labelled LDHBtr 100 nM; MST titration, Kd fit (weak, millimolar binding)
[5] = target: T1, truncated LDHB (LDHBtr), LDHB subunit …; assay: NMR WaterLOGSY, peptide 800 µM, LDHBtr 15 µM
[6] = target: T1, truncated LDHB (LDHBtr), LDHB subunit …; assay: MST (raw fluorescence), Red-dye-NHS labelled LDHBtr 100 nM

T1 sequence (P07195 21-334 limits assumed): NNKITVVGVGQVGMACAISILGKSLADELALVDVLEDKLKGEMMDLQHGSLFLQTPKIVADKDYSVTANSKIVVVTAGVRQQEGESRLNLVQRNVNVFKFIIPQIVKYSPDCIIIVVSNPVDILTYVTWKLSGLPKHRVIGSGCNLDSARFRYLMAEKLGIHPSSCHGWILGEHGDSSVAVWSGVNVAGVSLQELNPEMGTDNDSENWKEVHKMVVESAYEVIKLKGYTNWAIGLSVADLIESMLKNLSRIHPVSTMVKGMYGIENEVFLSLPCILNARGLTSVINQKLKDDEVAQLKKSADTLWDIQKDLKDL

Binder: ATLKEKLI-NH2 [LB8]
Kd [2]: 1440 µM
Kd [3]: 1050 µM

Binder: ATLAEALI-NH2 [LB8-A3-A5]
binding result [5]: binds

Binder: ATLKEKAI-NH2 [LB8-A6]
Kd [2]: > 10000 µM

Binder: ATGKEKLI-NH2 [LB8-G3]
Kd [2]: > 10000 µM

Binder: ATLKEKLIAPVAEEEATVP-NH2 [LB19, LDHB 19 N-terminal amino acid peptide]
Kd [2]: 270 µM

B3: LB8-Aib2 (peptide)
peptide: ATLKE[Aib]LI-NH2
modifications: N-terminus assumed
SMILES: CC[C@H](C)[C@H](NC(=O)[C@H](CC(C)C)NC(=O)C(C)(C)NC(=O)[C@H](CCC(=O)O)NC(=O)[C@H](CCCCN)NC(=O)[C@H](CC(C)C)NC(=O)[C@@H](NC(=O)[C@H](C)N)[C@@H](C)O)C(N)=O
binding result [5]: binds

B4: LB8-Aib3 (peptide)
peptide: ATL[Aib]E[Aib]LI-NH2
modifications: N-terminus assumed
SMILES: CC[C@H](C)[C@H](NC(=O)[C@H](CC(C)C)NC(=O)C(C)(C)NC(=O)[C@H](CCC(=O)O)NC(=O)C(C)(C)NC(=O)[C@H](CC(C)C)NC(=O)[C@@H](NC(=O)[C@H](C)N)[C@@H](C)O)C(N)=O
binding result [5]: binds

Binder: CTLKCKLI-NH2 (linker 1-5 via α,α′‑bisbromoxylene, also called LT018 polypeptide) [LT018]
Kd [6]: 66 µM

Binder: ATLKCKLIC-NH2 (linker 5-9 via α,α′‑bisbromoxylene) [LT020]
Kd [6]: 477 µM

B6: macrocyclic peptide MP2 (peptide)
peptide: ACTLKCKLI-NH2
modifications: linker 2-6 via mXylylene; N-terminus assumed
SMILES: CC[C@H](C)[C@H](NC(=O)[C@H](CC(C)C)NC(=O)[C@H](CCCCN)NC(=O)[C@@H]1CSCc2cccc(c2)CSC[C@H](NC(=O)[C@H](C)N)C(=O)N[C@@H]([C@@H](C)O)C(=O)N[C@@H](CC(C)C)C(=O)N[C@@H](CCCCN)C(=O)N1)C(N)=O
Kd [3]: 67 µM

B7: macrocyclic peptide MP3 (peptide)
peptide: ACLKECLI-NH2
modifications: linker 2-6 via mXylylene; N-terminus assumed
SMILES: CC[C@H](C)[C@H](NC(=O)[C@H](CC(C)C)NC(=O)[C@@H]1CSCc2cccc(c2)CSC[C@H](NC(=O)[C@H](C)N)C(=O)N[C@@H](CC(C)C)C(=O)N[C@@H](CCCCN)C(=O)N[C@@H](CCC(=O)O)C(=O)N1)C(N)=O
Kd [3]: 787 µM

Binder: ATLKEKLIAPVAE-NH2 [LB13]
Kd [2]: 605 µM

B8: macrocyclic peptide MP4 (peptide)
peptide: ATLKCKLIC-NH2
modifications: linker 5-9 via mXylylene; N-terminus assumed
SMILES: CC[C@H](C)[C@@H]1NC(=O)[C@H](CC(C)C)NC(=O)[C@H](CCCCN)NC(=O)[C@@H](NC(=O)[C@H](CCCCN)NC(=O)[C@H](CC(C)C)NC(=O)[C@@H](NC(=O)[C@H](C)N)[C@@H](C)O)CSCc2cccc(c2)CSC[C@@H](C(N)=O)NC1=O
Kd [3]: 398 µM

Binder: CTLKCKLI-NH2 (linker 1-5 via o‑benzyl) [macrocyclic peptide MP8]
Kd [3]: 25 µM

B9: macrocyclic peptide MP10 (peptide)
peptide: Ac-KTLKDKLI-NH2
modifications: lactam 1-5
SMILES: CC[C@H](C)[C@H](NC(=O)[C@H](CC(C)C)NC(=O)[C@H](CCCCN)NC(=O)[C@@H]1CC(=O)NCCCC[C@H](NC(C)=O)C(=O)N[C@@H]([C@@H](C)O)C(=O)N[C@@H](CC(C)C)C(=O)N[C@@H](CCCCN)C(=O)N1)C(N)=O
Kd [3]: 142 µM

B10: macrocyclic peptide MP11 (peptide)
peptide: ATLKEKLI-NH2
modifications: lactam N-5
SMILES: CC[C@H](C)[C@H](NC(=O)[C@H](CC(C)C)NC(=O)[C@H](CCCCN)NC(=O)[C@@H]1CCC(=O)N[C@@H](C)C(=O)N[C@@H]([C@@H](C)O)C(=O)N[C@@H](CC(C)C)C(=O)N[C@@H](CCCCN)C(=O)N1)C(N)=O
Kd [3]: 465 µM

Binder: ATLKDQLIYNLLKEEQTPQ-NH2 [LA19]
binding result [5]: binds

Further lines, results first:

EC50 (read off the curve) [1]: ~10 µM
B1: macrocyclic peptide MP7 (peptide)
peptide: CTLKCKLI-NH2
modifications: linker 1-5 via C6F4(1,4-diyl); N-terminus assumed
SMILES: CC[C@H](C)[C@H](NC(=O)[C@H](CC(C)C)NC(=O)[C@H](CCCCN)NC(=O)[C@@H]1CSc2c(F)c(F)c(c(F)c2F)SC[C@H](N)C(=O)N[C@@H]([C@@H](C)O)C(=O)N[C@@H](CC(C)C)C(=O)N[C@@H](CCCCN)C(=O)N1)C(N)=O

Kd [4]: 8200 µM
Binder: AALKEKLI-NH2 [LB8-A1]

binding result [5]: binds
B2: LB8-Aib1 (peptide)
peptide: ATL[Aib]EKLI-NH2
modifications: N-terminus assumed
SMILES: CC[C@H](C)[C@H](NC(=O)[C@H](CC(C)C)NC(=O)[C@H](CCCCN)NC(=O)[C@H](CCC(=O)O)NC(=O)C(C)(C)NC(=O)[C@H](CC(C)C)NC(=O)[C@@H](NC(=O)[C@H](C)N)[C@@H](C)O)C(N)=O

Kd [6]: 233 µM
Binder: ACLKECLI-NH2 (linker 2-6 via α,α′‑bisbromoxylene) [VS-142-BisAlk]

Kd [3]: 64 µM
B5: macrocyclic peptide MP1 (peptide)
peptide: CTLKCKLI-NH2
modifications: linker 1-5 via mXylylene; N-terminus assumed
SMILES: CC[C@H](C)[C@H](NC(=O)[C@H](CC(C)C)NC(=O)[C@H](CCCCN)NC(=O)[C@@H]1CSCc2cccc(c2)CSC[C@H](N)C(=O)N[C@@H]([C@@H](C)O)C(=O)N[C@@H](CC(C)C)C(=O)N[C@@H](CCCCN)C(=O)N1)C(N)=O

Kd [3]: 9.43 µM
Binder: CT[tBuAla]KCKLI-NH2 (linker 1-5 via p‑tetrafluorophenyl) [macrocyclic peptide CT-44]

Kd [3]: 7.82 µM
Binder: CTLKCK[Ala(cPr)]I-NH2 (linker 1-5 via p‑tetrafluorophenyl) [macrocyclic peptide CT-45]

Kd [2]: 3100 µM
Binder: ATLKDQLI-NH2 [LA8]

Each block holds one binder with its values, some of them ahead of it. *1 amine or outer side, *2 acyl side, *3 side chain or, on linkers, in order; H or OH if unused. Bridges are numbered along the chain shown (N, C = ends). Primed or numbered codes have the meaning given here. Where no end group is shown, it is not given here. [ ]: non-standard residue; d: D form. α,α′‑bisbromoxylene = α,α′-bisbromoxylene, an alkylating agent that cross-links two Cys; p‑tetrafluorophenyl = Cys-Cys linker made by stapling with hexafluorobenzene; C6F4(1,4-diyl) = Fc1c(F)c([*:2])c(F)c(F)c1[*:1]; mXylylene = c1cc(C[*:1])cc(C[*:2])c1; Ala(cPr) = N[C@@H](CC1CC1)C(=O)O; tBuAla = CC(C)(C)C[C@H](N)C(=O)O; Aib = CC(C)(N)C(=O)O
